Where “and” joins values, the source holds several entries; their conditions need not be identical. Equal entries are not always repeated. The list shows a part of the results. Most values come without repeats; read them as rough.
What was measured:
[1] = tested on: SARS-CoV-2 nsp3 SARS-unique domain core (SUD-core, nsp3 residues 413-676); assay: dissociation rate constant koff (BLI); higher = faster dissociation; conditions: 100 µM; 25 °C
[2] = tested on: SARS-CoV-2 nsp3 SARS-unique domain core (SUD-core, nsp3 residues 413-676); assay: apparent dissociation constant Kd (single-concentration BLI fit); higher = weaker binding; conditions: 100 µM; 25 °C

Row | Compound | dissociation rate constant koff [1] | apparent dissociation constant Kd [2]
1 | OC[C@H]1O[C@@H](n2cnc3c(NCCc4ccccc4)ncnc32)[C@H](O)[C@@H]1O | 0.0125 s⁻¹ | 99.6 µM
2 | COc1nccc(-c2c(-c3ccc(F)cc3)ncn2C2CCNCC2)n1 | 0.569 s⁻¹ | 30 µM
3 | CC(C)(C)c1cc(C=C(C#N)C#N)cc(C(C)(C)C)c1O | 0.116 s⁻¹ | 7800 µM
4 | CC(C)c1c2cc(-c3ccnc(NC4CCC(NC5CCOCC5)CC4)n3)ccc2nn1C (stereo not drawn) | 0.142 s⁻¹ | 19 µM
5 | Nc1ccn([C@@H]2O[C@H](CO)[C@@H](O)[C@@H]2O)c(=O)n1 | 0.0194 s⁻¹ and 0.0114 s⁻¹ | 55.5 µM and 49.1 µM
6 | C[C@@H](N)COc1ccc(-c2cnc3ccc(N[C@H](C)c4cccc(F)c4)nn23)cc1 | 0.329 s⁻¹ | 1890 µM
7 | NC(=O)Nc1sc(-c2ccc(F)cc2)cc1C(N)=O | 0.772 s⁻¹ | 1030 µM
8 | CC(c1ccc(-c2cnc3c(-c4ccc(S(N)(=O)=O)c5ccccc45)cnn3c2)cc1)N1CCCC1 (stereo not drawn) | 0.122 s⁻¹ | 2970 µM
9 | Oc1cc2c(cc1O)C(Cc1cccc3ccccc13)NCC2 (stereo not drawn) | 0.148 s⁻¹ | 95.8 µM
10 | COc1cc(F)c(F)c(Nc2ccc(I)cc2F)c1NS(=O)(=O)C1(C[C@H](O)CO)CC1 | 0.413 s⁻¹ | 2550 µM
11 | N#CCC1(n2cc(-c3ncnc4[nH]ccc34)cn2)CN(C2CCN(C(=O)c3ccnc(C(F)(F)F)c3F)CC2)C1 | 0.264 s⁻¹ | 197 µM
12 | COc1ccc2nc3ccc(OC)cc3c(SCCCN)c2c1 | 0.062 s⁻¹ | 17700 µM
13 | COc1c(B(O)O)cccc1-c1nc2ccc3[nH]ncc3c2c2c1CCC2 | 0.0445 s⁻¹ | 338 µM
14 | CNS(=O)(=O)Nc1nccc(Cc2c(C)c3ccc(Oc4ncccn4)cc3oc2=O)c1F | 0.324 s⁻¹ | 1960 µM
15 | COc1cc2ncnc(Nc3ccc(O)c(Br)c3)c2cc1OC | 0.172 s⁻¹ | 4000 µM
16 | CC#CC(=O)N[C@H]1CCCN(c2c(F)cc(C(N)=O)c3[nH]c(C)c(C)c23)C1 | 0.354 s⁻¹ | 2270 µM
17 | c1cc(Nc2cc(C3CC3)[nH]n2)nc(Nc2ccc3nc[nH]c3c2)n1 | 0.113 s⁻¹ | 76.1 µM

Row | Compound | dissociation rate constant koff [1] | apparent dissociation constant Kd [2]
18 | CN1CCN(Cc2ccc(-c3cn(C4CCC(O)CC4)c4nc(NCCC5CC5)ncc34)cc2)CC1 (stereo not drawn) | 0.0601 s⁻¹ | 82.6 µM
19 | CNC(=O)c1cc(Oc2ccc(NC(=O)Nc3ccc(Cl)c(C(F)(F)F)c3)cc2)ccn1 | 0.0296 s⁻¹ | 128 µM
20 | CN1C(=O)C(Cc2c[nH]c3ccccc23)NC1=S (stereo not drawn) | 0.0673 s⁻¹ | 88.9 µM
21 | Cc1nc2ccc(-n3ncc(C(=O)c4cc5ccccc5[nH]4)c3N)cc2[nH]1 | 0.0601 s⁻¹ | 110 µM
22 | CCOc1nc(Nc2ccc(C(=O)N3CCOCC3)cc2OC)nc2[nH]ccc12 | 0.724 s⁻¹ | 765 µM
23 | CCN1CCN(Cc2ccc(C(=O)Nc3ccc(C)c(Oc4ccc5c(c4)CC(=O)N5)c3)cc2C(F)(F)F)CC1 | 0.0186 s⁻¹ | 29.8 µM
24 | O=C(/C=C/c1ccc(O)c(O)c1)c1ccc(O)cc1O | 0.186 s⁻¹ | 223 µM
25 | NCCNC(=O)Cc1ccc(NC(=O)Cc2ccc(Nc3ncnc4c3ncn4[C@@H]3O[C@H](CO)[C@@H](O)[C@H]3O)cc2)cc1 | 0.0139 s⁻¹ | 215 µM
26 | O=C(Cc1ccc(-c2ccc(OCCN3CCOCC3)cc2)cn1)NCc1ccccc1 | 0.0677 s⁻¹ | 34.1 µM
27 | CCCS(=O)(=O)NC1CC(N(C)c2ncnc3[nH]ccc23)C1 (stereo not drawn) | 0.262 s⁻¹ | 3730 µM
28 | C[C@@H]1O[C@@H](O[C@H]2[C@H](O[C@H]3CC[C@]4(C)[C@H]5CC=C6[C@@H]7CC(C)(C)CC[C@]7(C(=O)O)CC[C@@]6(C)[C@]5(C)CC[C@H]4C3(C)C)OC[C@H](O[C@@H]3O[C@H](CO)[C@@H](O)[C@H](O)[C@H]3O)[C@@H]2O)[C@H](O)[C@H](O)[C@H]1O | 0.413 s⁻¹ | 3220 µM
29 | COc1cc2nccc(Oc3ccc(NC(=O)C4(C(=O)Nc5ccc(F)cc5)CC4)cc3)c2cc1OC | 0.211 s⁻¹ | 2260 µM
30 | C=CC(=O)N[C@H]1CCOC[C@H]1Nc1ncc2cc(-c3c(Cl)c(OC)cc(OC)c3Cl)ccc2n1 | 0.326 s⁻¹ | 2810 µM
31 | COc1cc(N2CCC(N)CC2)ccc1Nc1ncc(Cl)c(-c2c[nH]c3ccccc23)n1 | 0.0428 s⁻¹ | 74.2 µM
32 | Cc1cc(Nc2ncc(F)c(N[C@H]3[C@@H](C(N)=O)[C@@H]4C=C[C@H]3C4)n2)ccc1N1CCN(C)CC1 | 0.703 s⁻¹ | 1830 µM
33 | O=c1ccn([C@H]2O[C@@H](CO)[C@H](O)[C@@H]2O)c(=O)[nH]1 | 0.0198 s⁻¹ | 468 µM
34 | Cc1ccc(NC(=O)N2CCN(c3nc(N)nc4sc(-c5cccnc5)nc34)CC2)cc1 | 0.0779 s⁻¹ | 110 µM

Source: the supplement of paper PMC10326071
